Data from PubChem BioAssay AID1508623 (National Center for Advancing Translational Sciences (NCATS), 2021).
Screen size: about 48,000 compounds; about 450 (0.94%) were called active. About 19% were inconclusive and are not listed. The call rests on the fitted dose curve; in most records, active means well fitted inhibition curve with a large enough effect; inconclusive means small, poorly fitted or top-dose-only effect; inactive means no such curve, though single readings can be large or run the other way. Some of the results follow.

Experiment: Primary qHTS for Identification of Small Molecule Inhibitors of Huntingtin Promoter Activity; further: nearly all actives have a fitted effect of over 50% in size
Settings: HEK293 HTT promoter firefly luciferase reporter (activity 0% = vehicle and -100% = no light), 24 h; series mostly up to 57.5 µM; activity change, negative = inhibition: at the top concentration
How it was run: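 Luminescence was read after Dual-Glo reagent and a 10 min room-temperature incubation. Values were normalized to vehicle (0% activity) and zero RLU (-100% activity). Reporter HEK293 cells had been exposed to compounds (up to 57.5 uM final) for 24 h.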

Compound | activity change, negative = inhibition
CCCN(CCC)CCCNC(=O)c1cc2c(=O)[nH]c3ccccc3c2n1C | inactive: -6%
COc1cccc(-n2c(=O)c3sc4ccccc4c3n(CC(=O)Nc3ccccc3C)c2=O)c1 | inactive: -12.8%
O=C(CSc1c2c(nc3cc(Cl)ccc13)CCCC2)NCc1ccccc1Cl | inactive: -32.2%
COc1ccc(C2CC(=O)c3cc(-c4nc(-c5cccc([N+](=O)[O-])c5)cs4)c(=O)n(-c4ccc(OC)cc4)c3C2)cc1 (centres undefined) | inactive: -2.94%
COc1ccc(C2N3CC4(C)CN2CC(c2ccccc2)(C3)C4=O)cc1OC (centres undefined) | inactive: -11.1%
Cc1c(C(=O)Nc2ccc(F)cc2F)sc2nc3n(c(=O)c12)N=C(c1ccccc1)CS3 | inactive: -24.1%
Cn1nccc1C(=O)NCc1ccc2c(c1)CCN2C(=O)c1ccc(Cl)cc1 | inactive: -18.8%
CC(Sc1oc(-c2cccs2)nc1S(=O)(=O)c1ccccc1)c1ccccc1 (centres undefined) | inactive: -22.2%
COc1ccc(C(CNC(=O)COc2cc(C)cc(C)c2)N2CCOCC2)cc1 (centres undefined) | inactive: -3.31%
CCc1ccc(NC(=O)c2nn(-c3ccc(OC)cc3)c(=O)c3c2c2ccccc2n3C)cc1 | inactive: -26.6%
COc1ccc(N2CCN(c3csc4ccccc4c3=O)CC2)cc1 | inactive: 4.61%
CCc1ccc(Oc2c(C(F)(F)F)oc3c(CN4CCCC(C)C4)c(O)ccc3c2=O)cc1 (centres undefined) | inactive: -13.4%
CC(CNC(=O)CCS(=O)(=O)c1cc2c(cc1Cl)NC(=O)CO2)c1ccccc1 (centres undefined) | inactive: 11.1%
CCOC(=O)c1ccccc1NC(=O)CCc1nc(-c2ccc(C)cc2)no1 | inactive: -5.58%
CCc1ccccc1NC(=O)C1CCCN(c2cnccn2)C1 (centres undefined) | inactive: -10.6%
C=C(C)C(=O)OCC(O)CO (centres undefined) | inactive: 10.7%
CCOc1nc2cccc(C(=O)O)c2n1Cc1ccc(-c2ccccc2-c2nn[nH]n2)cc1 | inactive: 1.25%
NC(=O)NN=Cc1ccc([N+](=O)[O-])o1 | inactive: 3.43%
Cc1ccc(NC(=O)CSc2nc(=O)cc(N)n2CCc2ccccc2)cc1 | inactive: 3.67%
O=C(Nc1cccc(NC(=O)c2ccccc2Cl)c1)c1cccc(Br)c1 | inactive: -28.9%
O=C(CCn1cnc2onc(-c3ccc(F)cc3)c2c1=O)N1CCN(c2cccc(Cl)c2)CC1 | inactive: -16.4%
O=C(Nc1ccccc1C(F)(F)F)N1CCN(c2ccc3nnc(-c4ccc(F)cc4)n3n2)CC1 | inactive: -31.2%
CCC(C(=O)NCCCN(CC)CC)n1ncn2c(cc3occc32)c1=O (centres undefined) | inactive: -15.8%
CCOc1ccc(CNC(=O)C2Cc3cc(S(=O)(=O)N4CCCCCC4)ccc3N2C(C)=O)cc1 (centres undefined) | inactive: -9.62%
Cc1ccc(NC(=O)Cn2c(-c3nonc3N)nc3ccccc32)cc1Cl | inactive: -1.56%

Compound | activity change, negative = inhibition
CCOc1ccc(OCC)c(NC(=O)C2CCN(c3cnccn3)CC2)c1 | inactive: -15.4%
O=C(Nc1nnc(S(=O)(=O)N2CCOCC2)s1)c1ccc(F)cc1 | inactive: 4.94%
O=C(c1ccc(F)cc1F)N1CCC(c2noc(-c3ccc(S(=O)(=O)N4CCCC4)cc3)n2)CC1 | inactive: -7.32%
CCc1ccc(S(=O)(=O)c2nnn3c2nc(NCc2ccccc2OC)c2cc(Cl)ccc23)cc1 | inactive: -4.96%
Cc1ccccc1-c1noc(-c2ccccc2OCC(=O)Nc2ccccc2[N+](=O)[O-])n1 | inactive: -12%
Cn1c(=O)oc2cc(S(=O)(=O)Nc3ccc(O)cc3)ccc21 | inactive: -19.2%
COc1ccc(C2NC(=O)N(C)C3=C2C(=O)N(c2ccc(C)cc2)C3)cc1 (centres undefined) | inactive: -13.1%
Cc1ccc2oc(=O)n(CCNC(=O)Nc3ccc(C)c(F)c3)c2c1 | inactive: -6.88%
Cc1ccccc1CSc1nc2cccnc2n1Cc1ccc(C(=O)NCCc2cccs2)cc1 | inactive: -12%
COc1ccc(Cl)cc1N(C)C(=O)C(=O)Nc1ccc2nc3n(c(=O)c2c1)CCCCC3 | inactive: -11.1%
Cc1ccc(N2CCN(C(=O)c3noc4c3COc3ccc(C)cc3-4)CC2)c(C)c1 | inactive: -9.83%
COc1ccc(NC(=O)CSc2nc(-c3ccccc3)nc3c2Cc2c(CO)cnc(C)c2O3)cc1Cl | inactive: -13.2%
Cc1ccc(C)c(N2CCN(C(=O)C(C)n3c(C)c4cnn(-c5ccccc5)c(=O)c4c3C)CC2)c1 (centres undefined) | inactive: -5.56%
Cc1ccc(CNC(=O)c2c(-c3cccc(Br)c3)noc2C)o1 | inactive: -17.7%
CC(Nc1ccc(-c2nc(-c3ccccn3)no2)cc1[N+](=O)[O-])c1ccccc1 (centres undefined) | inactive: 20.5%
Cc1ccc(C)c(Cn2nc(C)n3c(cc4cc(C)ccc43)c2=O)c1 | inactive: 35.2%
O=C(CSCc1cnn(-c2ccccc2)c1-n1cccc1)Nc1ccc(F)cc1F | inactive: -18.4%
CCc1ccc(NC(=O)C(=O)NCC(c2cccnc2)N2CCOCC2)cc1 (centres undefined) | inactive: -28.1%
CCc1ccc(NC(=O)c2cc3c(=O)n(Cc4cccnc4)ccc3nc2C)cc1 | inactive: -21%
Cc1cccc(C(=O)Nc2cccc(OCc3cc(=O)n4c(C)csc4n3)c2)c1 | inactive: 12.9%
CC(C)c1nn2c(=O)cc(COC(=O)CNC(=O)c3ccccc3)nc2s1 | inactive: -11.4%
OCCc1ccccc1 | inactive: 9.7%
COc1ccc(-c2noc(CCC(=O)NCc3ccc(OC)cc3OC)n2)cc1 | inactive: -38.7%
O=C(O)c1ccccc1Nc1cccc(C(F)(F)F)c1 | inactive: 8.1%
